According to the supplement of paper PMC10126150:
Sequences with one replicate were seen in a single cluster, so their values are uncertain.

tested on: ATP; experiment: switch fluorescence ratio, 500 uM ATP over buffer (Cy3 cluster intensity, sum of 5 cycles each) (fold (ratio)); higher = stronger signal-on switching upon ATP binding; sequences stand for … in TCGTCGGCAGCGTCAGATGTGTATAAGAGACAGTTTTTTTTTTTTTTTTTTTTTTTTT…TC; details: aptamer strand: ATP DNA aptamer (quencher-CACCTGGGGGAGTATTGCGGAGGAAGG + anchor), 100 nM annealed; ATP concentration: 500 uM; one replicate
Summary of the method: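 Clusters carrying Cy3-labelled switching strands on a modified Illumina MiSeq flow-cell were annealed to 100 nM quencher-labelled ATP aptamer and imaged in selection buffer. They were imaged again after 15 min with 500 uM ATP at 22 °C, over five buffer/ATP cycles with NaOH stripping and re-annealing in between. For each cluster, the fluorescence ratio is the summed Cy3 intensity of the target cycles divided by that of the buffer cycles, averaged per switch-domain sequence. Clusters outside 100-1000 RFU were left out.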
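Also: ATP exposure 15 min at 22 °C before imaging.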

Sequence	switch fluorescence ratio
AACTGCTCCA	1.08
AACCGACCGA	0.934
GTCGTGCTGG	0.988
TTTTAAGACT	0.983
AACGCCGTCA	0.989
GTATGAGAGG	0.955
ATTCCTGGCA	1.15
ATCACTAATG	1.05
AGTTGGTTT	0.995
AAAGGGATGC	1.07
GGGTAATTTC	1.03
GCTTAATCGA	0.971
ATGCTTATTT	1.03
CGAGGATGTT	0.991
ACGGCTAAAA	0.976
CGTTGACGA	0.976
AAGTAATTGA	1.01
TTTCAGGATT	0.981
GTGTTTCGGG	1.03
GCCGGGTAGA	1.04
ATTAAACCAT	1.02
CGGACCCCCT	1.41
AGAAGTGATC	1.05
GAAGCGTCCA	1.08
AGATTTGGAC	1.02
GGCGGTATCC	0.978

Sequence	switch fluorescence ratio
GTGCATAGGT	0.973
AAACGTTTT	0.982
CCAGTAATTA	1.01
ACAATCATTA	0.985
CCATTAGTGC	1.02
CTGGTAAGAA	1.03
ATAGCACCGT	1.04
AACAATGATG	0.972
CGTGGGTTTT	0.988
ACCCCGCAGG	2.28
TGTAGGATGT	1.01
GCCTCCATTT	1.01
TAAACTCTTG	1
TTTGGGGCG	1
AACGTTACTG	1.45
AGAGTGATTT	0.987
ATCAGGTTGG	1.01
GCTCATTAAT	1.01
TGTTAGTTCA	0.973
GACCGACTGT	1.14
TGTAAAACTC	1
AACAATATCC	1.03
AGGCATTGAT	0.968
TTCTTCGGG	0.999
GTAACGAAAA	1.16
CTAAG	0.989

Sequence	switch fluorescence ratio
CTGCGTCTTG	1
AGCGGAACTA	0.997
ACAAGTAGCA	1.01
GGGCCGGGA	0.994
GCTCGCATTG	1.07
ACATATCTCC	1.12
GCTAGATAGT	1.01
GCGTTGTAGC	1.07
ATACAGGATT	1.03
AAGGCATGGT	1.01
GGATATTGGA	1.04
TGATTAAACC	1.01
ATGTTTTCCC	1
GGGGGCTGAC	1
GTGCCAAAGG	1.01
CTGCTTATGT	1
AATTATTCAG	1.01
ATCCAGAGAC	1.01
GATTGTTGG	1.01
GCACAGCTTA	1.04
TTTAGATGGC	0.939
ACTGAAGAT	1.04
CGCTCGATCA	0.954
CCCCCTGTCC	1.55
CGGTGGTGGT	0.973
ACGCCCTAGT	1.06

Sequence	switch fluorescence ratio
AATGGTTG	1.02
GGTTATTTAC	0.992
TCGGCGATGG	1.01
GATCGGGAGT	0.994
TCCGCTACAG	2.51
TCTGCTGCTG	0.989
GATGAAGCA	1.01
TTGGTCATTA	1.05
ATAAACTA	1.01
CGTTAAAACG	1.01
CCATCACTCA	1.01
TATGTTTGTT	0.994
ATTTCGGAAC	1.01
CGAATTGAAT	1.01
CAGACAGGAA	1.07
TTTTTCTAGG	0.979
ACTAGTAGGC	0.998
TAGGATCTGT	0.969
TCGTGGCGGG	1.04
TAGGCGCCAC	1.01
GTTAAGTAGA	1.03
GTGTGTAGA	0.999
ATCCCGACCA	1.01
AAGGTTCAAT	1.02
TGCCGGACGC	0.947
AGTGAGAAGC	0.985

Sequence	switch fluorescence ratio
ATGAATATCG	1.01
GGGAGGTAAA	1.03
TGCTGCTAAG	0.984
AATCCCAGC	1.06
ATGCGGGAGA	0.961
ATACCGCTCG	1.01
AGACTCCGTG	0.936
TGACCGCGTC	1.03
ACTTGCAGAT	1.05
GGTAGACGTT	1
GTAGGTGGTG	1
ACCGCGGAAA	1.03
CCGGCGAAAA	1.12
TCACCCTTTG	1.04
CTCGGTGGGT	0.996
TCCAGTATAA	1.03
CAGAGTGTGT	0.964
GGTACATGAG	1.04
ATATCCGATG	1
ATGGCTCCGA	1.09
CGTCGGTGCG	0.959
GGCCCCCGTG	1.18
AAGTAGGATT	1.03
TGAATGTAAA	1.02
CGTTCGGTTG	1.01
CGGGAACGTG	1.05

Sequence	switch fluorescence ratio
TACTGAAGTG	0.97
TAGATGTTAC	0.979
CATAGTGGCA	0.975
TTCTGAAAAA	0.953
ATGACCCATT	0.99
TCTCAGGGCT	1.01
CTCATGGAAG	0.974
TGACCCCGCT	1.09
TCTAATACGA	2.59
ACCAAATTGG	0.971
TATAGGAGGA	1.01
CGTGTAGTTC	1.05
GGAAGCAAGG	2.27
ACACACCCTG	1.51
TCAAAAATAG	1.02
CCACAAGTCG	1.05
CCAACCAACT	1.12
TTGTCAGTTA	0.997
CGGCCACCAA	1.13
CCTTAAGCC	1.62
GTGGTCGGAG	0.946
TGGCTCCGCT	2.2
GGCGGCTCCG	0.996
TGCAACTATT	1.04
CTAACAGCCT	1.04
GCTTGCCCGG	0.981

Sequence	switch fluorescence ratio
GAGGGACATC	0.962
CTTCCTCGAC	4.11
ACTTGGTGAC	1.07
CATGGTTATC	0.998
TAAATCTCA	1.03
GATTGTAAGT	0.971
ATGCGGACGT	0.988
CAGATTCACG	1
CTGAAAATAA	0.966
CTGGGAGGGC	1.04
TAAATAGTCT	0.967
GGTCAAACTG	1.05
GAGCCAGAAA	0.962
TAGCTGGATT	1.01
CAGAAGGATT	1.02
TTGAGGGTC	0.954
AATGTAGGTG	0.994
AGTACCGCTT	1.1
AAGATACACG	1.08
TGAAGAAAAA	0.964
ACGTGAGCAC	1.11
GATTTAGCGA	1.02
CAACCTGCT	0.988
CAATTGTAAG	1.09
TTAGCGATTG	1.43
CGCGCGGTTG	1.05

Sequence	switch fluorescence ratio
CGTGCCGGTC	1.06
TTATAGCACG	1.15
TATGTGCGTC	1.03
GGGAAAGGTC	0.959
TGGCGGCCGC	0.984
TCTGAAGTAG	1.02
TGCACGTCGC	1.09
GTAGAGGG	1.02
ATAGGTCTGA	1.03
TGGTATTGT	0.957
TTGGGTGGGC	1.07
AGGAGTCTTT	0.951
TCTGATTCA	0.972
CATCCGCCGG	2.15
ACGTGTTGCA	1.02
GGGCCAAAAT	1.03
GACTGTGAAT	1.01
GGGATAAGAT	0.968
GCGGGAAATA	0.98
